Source: the supplement of paper PMC8728848
The other results are listed elsewhere or left out.

Columns and labels:
Experiment in all cases: glycan array binding signal (z-score within array); higher = stronger binding
Conditions in all cases: glycan notation: IUPAC condensed, linker removed
[1] = target: GalNAc(b1-3)Gal
Outline: (§1)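 The binding signal is a Z-score computed within each array. Data were drawn from 3228 arrays in the Consortium for Functional Glycomics database, restricted to those with a known protein sequence. Scores were averaged over arrays of the same protein sequence at different concentrations or buffers, and over linkers, and negative values can be taken as non-binding.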

[2] = target: GalNAc(b1-3)Gal(a1-4)Gal(b1-4)GlcNAc
Outline: as §1

[3] = target: GalNAc(b1-3)Gal(a1-4)Gal(b1-4)GlcNAc(b1-3)Gal(b1-4)Glc
Outline: as §1

[4] = target: GalNAc(b1-3)Gal(a1-6)Gal(b1-4)Glc
Outline: as §1

[5] = target: GalNAc(b1-3)GalNAc
Outline: as §1

[6] = target: GalNAc(b1-3)GlcNAc
Outline: as §1

[7] = target: GalNAc(b1-4)Gal(b1-4)Glc
Outline: as §1

[8] = target: GalNAc(b1-4)GlcNAc
Outline: as §1

[9] = target: GalNAc(b1-4)GlcNAc(b1-2)Man
Outline: as §1

[10] = target: GalNAc(b1-4)GlcNAc(b1-2)Man(a1-3)[GalNAc(b1-4)GlcNAc(b1-2)Man(a1-6)]Man(b1-4)GlcNAc(b1-4)GlcNAc
Outline: as §1

[11] = target: GalNAc(b1-4)GlcNAc(b1-3)GalNAc(b1-4)GlcNAc
Outline: as §1

[12] = target: GalNAc(b1-4)GlcNAc6S
Outline: as §1

[13] = target: GalNAc(b1-6)GalNAc
Outline: as §1

[14] = target: GalNAc3S(b1-4)GlcNAc
Outline: as §1

[15] = target: GalNAc3S(b1-4)GlcNAc3S
Outline: as §1

[16] = target: GalNAc3S(b1-4)[Fuc(a1-3)]GlcNAc
Outline: as §1

[17] = target: GalNAc4S6S(b1-4)GlcNAc
Outline: as §1

[18] = target: GalNAc6S(b1-4)GlcNAc
Outline: as §1

[19] = target: Glc(a1-4)Glc
Outline: as §1

[20] = target: Glc(a1-4)Glc(a1-4)Glc(a1-4)Glc
Outline: as §1

[21] = target: Glc(a1-6)Glc(a1-6)Glc
Outline: as §1

[22] = target: Glc(a1-6)Glc(a1-6)Glc(a1-6)Glc
Outline: as §1

[23] = target: Glc(b1-4)Glc
Outline: as §1

[24] = target: Glc(b1-6)Glc
Outline: as §1

[25] = target: GlcA(b1-3)Gal
Outline: as §1

[26] = target: GlcA(b1-3)GlcNAc
Outline: as §1

[27] = target: GlcA(b1-6)Gal
Outline: as §1

[28] = target: GlcA3S(b1-3)Gal(b1-4)GlcNAc(b1-2)Man
Outline: as §1

[29] = target: GlcA3S(b1-3)Gal(b1-4)GlcNAc(b1-3)Gal(b1-4)Glc
Outline: as §1

[30] = target: GlcNAc(a1-3)Gal(b1-4)GlcNAc
Outline: as §1

[31] = target: GlcNAc(a1-4)Gal(b1-3)GlcNAc
Outline: as §1

[32] = target: GlcNAc(a1-4)Gal(b1-4)GalNAc
Outline: as §1

[33] = target: GlcNAc(a1-4)Gal(b1-4)GlcNAc
Outline: as §1

[34] = target: GlcNAc(a1-4)Gal(b1-4)GlcNAc(b1-3)Gal(b1-4)Glc
Outline: as §1

[35] = target: GlcNAc(a1-4)Gal(b1-4)GlcNAc(b1-3)Gal(b1-4)GlcNAc
Outline: as §1

[36] = target: GlcNAc(a1-4)Gal(b1-4)GlcNAc(b1-3)Gal(b1-4)GlcNAc(b1-3)Gal(b1-4)GlcNAc
Outline: as §1

[37] = target: GlcNAc(a1-4)Gal(b1-4)GlcNAc(b1-3)Gal(b1-4)[Fuc(a1-3)]GlcNAc(b1-3)Gal(b1-4)[Fuc(a1-3)]GlcNAc
Outline: as §1

[38] = target: GlcNAc(a1-6)Gal(b1-4)GlcNAc
Outline: as §1

[39] = target: GlcNAc(b1-2)Gal(b1-3)GalNAc
Outline: as §1

[40] = target: GlcNAc(b1-2)Man(a1-3)[GlcNAc(b1-2)Man(a1-6)]Man(b1-4)GlcNAc(b1-4)GlcNAc
Outline: as §1

[41] = target: GlcNAc(b1-2)Man(a1-3)[GlcNAc(b1-2)Man(a1-6)]Man(b1-4)GlcNAc(b1-4)[Fuc(a1-6)]GlcNAc
Outline: as §1

[42] = target: GlcNAc(b1-2)Man(a1-3)[GlcNAc(b1-4)][GlcNAc(b1-2)Man(a1-6)]Man(b1-4)GlcNAc(b1-4)GlcNAc
Outline: as §1

[43] = target: GlcNAc(b1-2)Man(a1-3)[GlcNAc(b1-4)][GlcNAc(b1-2)Man(a1-6)]Man(b1-4)GlcNAc(b1-4)[Fuc(a1-6)]GlcNAc
Outline: as §1

[44] = target: GlcNAc(b1-2)[GlcNAc(b1-4)]Man(a1-3)[GlcNAc(b1-2)Man(a1-6)]Man(b1-4)GlcNAc(b1-4)GlcNAc
Outline: as §1

[45] = target: GlcNAc(b1-2)[GlcNAc(b1-4)]Man(a1-3)[GlcNAc(b1-4)][GlcNAc(b1-2)Man(a1-6)]Man(b1-4)GlcNAc(b1-4)GlcNAc
Outline: as §1

B1: ABA (Agaricus bisporus), Q00022 (protein)
chain: MTYTISIRVYQTTPKGFFRPVERTNWKYANGGTWDEVRGEYVLTMGGSGTSGSLRFVSSDTDESFVATFGVHNYKRWCDIVTNLTNEQTALVINQEYYGVPIRDQARENQLTSYNVANAKGRRFAIEYTVTEGDNLKANLIIG
[1]
  glycan array binding signal (z-score): -0.222
[2]
  glycan array binding signal (z-score): -0.3
[3]
  glycan array binding signal (z-score): -0.315
[4]
  glycan array binding signal (z-score): -0.15
[5]
  glycan array binding signal (z-score): 0.071
[6]
  glycan array binding signal (z-score): -0.262
[7]
  glycan array binding signal (z-score): -0.127
[8]
  glycan array binding signal (z-score): -0.262
[9]
  glycan array binding signal (z-score): -0.265
[10]
  glycan array binding signal (z-score): 0.052
[11]
  glycan array binding signal (z-score): -0.29
[12]
  glycan array binding signal (z-score): -0.293
[13]
  glycan array binding signal (z-score): -0.264
[14]
  glycan array binding signal (z-score): -0.26
[15]
  glycan array binding signal (z-score): -0.304
[16]
  glycan array binding signal (z-score): -0.301
[17]
  glycan array binding signal (z-score): -0.244
[18]
  glycan array binding signal (z-score): -0.285
[19]
  glycan array binding signal (z-score): -0.183
[20]
  glycan array binding signal (z-score): -0.134
[21]
  glycan array binding signal (z-score): -0.152
[22]
  glycan array binding signal (z-score): -0.112
[23]
  glycan array binding signal (z-score): -0.178
[24]
  glycan array binding signal (z-score): -0.162
[25]
  glycan array binding signal (z-score): -0.178
[26]
  glycan array binding signal (z-score): -0.26
[27]
  glycan array binding signal (z-score): -0.139
[28]
  glycan array binding signal (z-score): -0.275
[29]
  glycan array binding signal (z-score): -0.242
[30]
  glycan array binding signal (z-score): 1.95
[31]
  glycan array binding signal (z-score): -0.058
[32]
  glycan array binding signal (z-score): -0.114
[33]
  glycan array binding signal (z-score): 0.004
[34]
  glycan array binding signal (z-score): 0.348
[35]
  glycan array binding signal (z-score): 0.618
[36]
  glycan array binding signal (z-score): 1.75
[37]
  glycan array binding signal (z-score): 0.224
[38]
  glycan array binding signal (z-score): 0.477
[39]
  glycan array binding signal (z-score): -0.248
[40]
  glycan array binding signal (z-score): 5.72
[41]
  glycan array binding signal (z-score): 1.29
[42]
  glycan array binding signal (z-score): 2.54
[43]
  glycan array binding signal (z-score): 1.24
[44]
  glycan array binding signal (z-score): 1.7
[45]
  glycan array binding signal (z-score): 0.283
